Assay results from the supplement of paper PMC11417369.
Some of the results follow.

system: PfSIP2 AP2 domain 1 (GST-tagged); test: gcPBM binding intensity (ln(normalized median fluorescence intensity)); higher = stronger DNA binding
Method in brief: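 The binding buffer was 1× PBS containing 1% milk, 0.2 mg/ml BSA, 0.5% salmon testes DNA and 0.03% Triton X-100. In it, GST-tagged P. falciparum DNA-binding domains expressed in E. coli were applied for 1 h to an Agilent 4 × 180k array of primer-extended double-stranded 36-bp intergenic genomic probes plus negative controls. Binding intensity, read with Alexa488 anti-GST antibody and a 488 nm scan, is the highest Masliner-normalised natural-log median intensity across replicate spots of either probe orientation.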

Sequence	gcPBM binding intensity (ln)
TAACAAAAAGCACTTAGTACATATATATATATATAT [XGTACX_site1099]	9.43
TATATTTATTATAACACACACATATTTATATTATAG [CACACA_site6628]	6.91
TTTCTTTTTAAATATATACACACCGGGTGTACATAT [CACACA_site3345]	6.78
AGGTAATATACTAAATGTACAGAAAAACGAATTTTT [XGTACX_site2977]	6.81
AATGAAATAATACAATGTACGTTAAAAAAAAATAAA [XGTACX_site7928]	6.93
TAATATCAAACCTATAGTACATAAGGTATAAAAAAG [XGTACX_site3533]	7
GTATTATTTTATGATGCATGTGTATTTCATATATGC [TGCATGCA_site660]	6.98
AAAAAAAAAAAAATTACACACATACCTATAAGAATA [CACACA_site7097]	7.09
TTTTCTTTTTTCTTTTTAACTCTTACATAATAGGTG [CACACA_negctrl_site642]	6.83
TAAAATGAATAAAATTGTACTTAATAATATTTTAAA [XGTACX_site5532]	6.55
AATATATGTTAAAATGGTACACAATTATTATATATT [XGTACX_site6407]	6.93
AAAAAAAAAAAAAAGAGTACTTTTTTCACATTCATC [XGTACX_site8795]	7.17
TAAATCAAAAACAACAAGTCATATTAAAGATGGTAT [CACACA_negctrl_site1321]	7.01
CTTATAATATTACGGGTGCTATAAATACATTATATT	8.39
TTGTTTCAAAATTAAACACACACAAAAAAAAAAAAA [CACACA_site8856]	7.19
AAGGAAAACAGTAGGTGTACCAAACGTCCTAGGAAC [XGTACX_site3659]	6.64
TATATTTATATCATCACACATTTTTTTTTTCTTTTT [CACACA_site6150]	6.58
GGATATATAAGATACACACACAAATTAAATATAAAA [CACACA_site7333]	7.03
TAATATATAAATATATGTACATAATTAATAGGATAT [XGTACX_site237]	7.27
TATTCCTAATTTAAAAGTACATATATATATATATAT [XGTACX_site3008]	9.51
TTTTTTAAATTTAAAGTGCATTATTATATATTTGTA	8.06
AAAAAAGAAATAAGGATACACACTATTGATAAAAGT [CACACA_site272]	7.2
CCAGTGTGCACCTTGCGTACATATTAAATTAATTAA [XGTACX_site3729]	12.2

Sequence	gcPBM binding intensity (ln)
GGATAAGAAAAGAAGTGTACATATATATATATATAT [XGTACX_site8290]	9.42
TTCTTTTAAAAATATATTTTAAGAAAATTTAATTTA [GTGCAC_negctrl_site237]	6.89
TTTATTTTTTGAAACACACACAAAAAAAATGATACA [CACACA_site1881]	7.26
AAAAAAAAAATATATATATATATATATATATATATA [GTGCAC_negctrl_site467]	9.51
CAAAAAAAAAAACGGGTGCTAAATTTTATTTTTTAT	8.63
ATAAAGCACACCGACACACACATATATATATATATA [CACACA_site1047]	9.41
TATCATGGTTCGGATTGTACATATATGAATTTTTTT [XGTACX_site7478]	6.99
TGATATTATAGATATACACACATGTATGTATTTATA [CACACA_site6758]	6.86
AAATTTAGTAAAAAATGTACGTAAAATGTAAAATAT [XGTACX_site1314]	7.48
ATACTAACATTTTTTTGTACATATAACTATAAAATA [XGTACX_site1033]	7.32
AAGGTAAACGGACACACACACATACAAAAAAAAAAA [CACACA_site5961]	7.43
TATATATTATATAAATAAATAAATATATATATTTAT [TGCATGCA_negctrl_site270]	7
AATGATTTTGATTAACGTACGTACAAATATATATAT [XGTACX_site6604]	8.31
AGACCTATGATATATACACACATATAAATAAATATA [CACACA_site6725]	6.99
TTATTAAATATAAATATGTATCTTTTATGTTATATT [CACACA_negctrl_site306]	6.75
TAAATCCGCAGGCACACACACATATTAATAAAAAAA [CACACA_site3991]	6.96
TATTTTACGACATACCAAAAAAAAAAAAAAAAAATA [CACACA_negctrl_site1254]	6.87
AAAAAAAAAAGACACACACACATAGACCTCCAATAG [CACACA_site7646]	6.75
AATGTTAAACTATGATGTACGGTTAAAAATATAATT [XGTACX_site893]	7.21
TCCTCATTTTATCATACACACTTGTTTATATGTGTG [CACACA_site6548]	7.03
ATATATAATAATTGTAGTACAATTAATAAATAAAAT [XGTACX_site3840]	7.08
TATATATATATAATTTGTACACACAAATATGCATAT [XGTACX_site7297]	9.4
